In all, about 50,000 compounds went through this assay and about 800 (1.6%) showed an effect of 50% or more. The list shows a part of the results.
biological target: Bcl-2-like protein 10 (Homo sapiens) (UniProt Q9HD36); assay: Phenotype converters, Bcl-B/TR3 peptide binding displacement, primary biochemical FP (AID 1240); conditions: GST-Bcl-B / FITC-TR3 peptide fluorescence polarization; stronger effect = higher value; compound at 3.75 mg/L;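 also: 0% = Bcl-B with tracer peptide and DMSO and 100% = tracer peptide lacking Bcl-B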
Sequence of UniProt Q9HD36 (Q9HD36 whole entry, looked up): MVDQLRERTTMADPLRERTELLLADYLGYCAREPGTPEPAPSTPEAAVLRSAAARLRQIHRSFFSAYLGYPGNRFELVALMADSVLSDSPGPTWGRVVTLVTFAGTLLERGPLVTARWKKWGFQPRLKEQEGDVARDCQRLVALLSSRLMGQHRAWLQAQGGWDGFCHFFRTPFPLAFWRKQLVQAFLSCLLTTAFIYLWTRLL

Compound	displacement [%]
CCOC(=O)c1ccc(NC(=O)COc2ccccc2Cl)cc1	1.4
C/C(CC1CC2=C(CC1(C)C)C(C)(C)CCC2)=N\O (configuration not stated)	8.7
c1ccc(CCSc2ncnc3nc[nH]c23)cc1	3.5
Oc1cccc(C=Nc2ccc(Cl)c(Cl)c2)c1	-7.8
O=S(=O)(NC1CCCCC1)c1ccc(Br)cc1	13.4
COc1ccc(C2Nc3ccccc3C(=O)N2Cc2ccco2)cc1COc1c(C)cccc1C (configuration not stated)	-10.4
O=C(Nc1c(-c2ccccc2)nc2ccc(Cl)cn12)c1ccco1	5.7
Clc1ccc(-c2nc(-c3ccccn3)no2)cc1	-18.5
COc1ccc(-n2sc3c(c2=S)-c2ccccc2NC3(C)C)cc1OC	10.1
O=C(CCCN1C(=O)c2cccc3cccc(c23)C1=O)OCc1ccc2c(c1)OCO2	3.3
CCOC(=O)c1sc(NN=C(C#N)C#N)c(C(=O)OCC)c1C	35.5
NC(N)=NS(=O)(=O)c1ccc(NS(=O)(=O)c2ccc3ccccc3c2)cc1	4.3
CNCCOc1nc(-c2ccccc2)cc(-c2ccccc2)n1	-7.8
O=C(/C=C/c1ccc(Cl)cc1)Nc1ccc(N2CCCCC2)cc1	-0.4
C=CCn1c(SCC(=O)c2ccccc2)nc(O)cc1=O	-6
C=C1CCc2c([nH]c3ccc(OCC(C)C)cc23)C1=O	6.5
CC(=O)Nc1cc(-c2nc3cc(C)c(C)cc3o2)ccc1Cl	-19
COc1ccc(Cl)cc1NC1=C(Cl)C(=O)N(c2ccc(Br)cc2)C1=O	-3.8
CC1=NN(C(=O)c2cccnc2)C(C)(O)C1(C)C (configuration not stated)	11.6
O=C(O)/C=C\C(=O)OCCCC(F)(F)C(F)(F)F	9.5
CC1=CC(c2ccccc2)=Nc2ccc(C)cc2N1	4.4
CCOC(=O)c1c(C)oc2cc(Br)c(OCc3ccc([N+](=O)[O-])cc3)cc12	8.5
Cc1ccc(NC(=O)CC(=O)NN)cc1	1.4
O=C(N/N=C/c1ccccc1O)c1cc(=O)[nH]c2ccccc12	-24.1

Compound	displacement [%]
COC(=O)c1ccc(C(=O)OC)c(NC(=O)/C=C/c2ccc(Cl)cc2)c1	-6.4
O=[N+]([O-])c1ccc(Cl)cc1Sc1nc2ccccc2[nH]1	8.9
CC1=NN(c2ccc(Cl)c(Cl)c2)C(=O)/C1=C/c1ccco1	11.4
Cc1cc(-c2ccc(N=Cc3ccc([N+](=O)[O-])s3)c(C)c2)ccc1N=Cc1ccc([N+](=O)[O-])s1	-3.5
COc1ccc2c(c1OC)C(=O)N1c3ccccc3N=C(c3ccc(Cl)cc3)CC21 (configuration not stated)	-1.3
O=C(NCCCN1CCOCC1)c1cc(Cl)ccc1Cl	-5.4
O=[N+]([O-])c1cncc([N+](=O)[O-])c1Nc1ccc(Cl)cn1	2.1
O=S(=O)(c1ccc2c(c1)Cc1cc(S(=O)(=O)N3CCOCC3)ccc1-2)N1CCOCC1	1.4
Cc1cc(OCC(=O)Nc2ccccc2C(C)C)ccc1Cl	-6.2
CCCCNC(=O)/C(=C/c1ccc(C)o1)NC(=O)c1ccccc1	13.1
O=C(Nc1ccc2c(c1)OCO2)c1cnn2c1NC(c1ccco1)CC2C(F)(F)F (configuration not stated)	1.2
CCOc1cc(/C=C2\C=C(c3ccc(Br)cc3)OC2=O)ccc1OC(C)=O	12.6
Cn1c(-c2cccs2)nc2c3ccccc3c3ccccc3c21	11.7
CN(/N=C/c1ccc([N+](=O)[O-])cc1)C(=S)c1ccccc1	-4.9
CCC(CC)=NNC(=O)C(=O)Nc1ccc(F)cc1	9.1
CC(C)(C)NCCOCCOc1cccc(Cl)c1Cl	-2
CCOc1ccc(NC(=O)COc2ccccc2)cc1	3.2
CC(C)=NNc1nc2ccccc2s1	13.3
CC(C)(C)c1nnc(NC(=O)c2cccc([N+](=O)[O-])c2)s1	9.6
COc1cc(C=C2C(=O)N(C)C(=O)N(C)C2=O)cc(Br)c1OCc1ccccc1	13.9
CCN(CC)CCCNC(=S)Nc1cccc(Cl)c1	-2.4
CC1C(C(=O)N(C=O)c2cccc(Cl)c2)C2C=CC1C21CC1 (configuration not stated)	-14.2
FC(F)(F)c1ccccc1CN1CCN(Cc2ccco2)CC1	-5.9
CCOc1cc(/C=C2\C(=O)NC(=O)N(c3ccc(Cl)cc3)C2=O)cc(Cl)c1OCC(=O)O	-2.8

Compound	displacement [%]
N#C/C(=C/c1cccc(C(F)(F)F)c1)C(=O)Nc1cccc(Br)c1	-9.1
Cc1onc(-c2c(Cl)cccc2Cl)c1C(=O)N1CCC(Cc2ccccc2)CC1	6.9
COC(=O)c1ccccc1NC(=O)c1cc2ccccc2o1	-1.5
O=C1CC(c2ccc([N+](=O)[O-])cc2)=NN1	8.6
COc1cc(C(=O)Nc2nc3c(C)cccc3s2)cc(OC)c1OC	-1.5
Cc1cc(C)n(CC(=O)n2c3ccccc3c3ccccc32)n1	12.7
Cc1ccc(/C=N/N2CCN(Cc3ccc(Cl)cc3)CC2)o1	-9.5
COc1ccc(C(=O)Nc2sc(Cc3ccccc3)c(C)c2C(N)=O)cc1	-16.5
CCOC(=O)c1ccc(NC(=O)C(=O)NCc2ccc(OC)cc2)cc1	-9
CC(=O)Nc1ccc(N2C(=O)C3C4CC(=O)C(c5ccccc54)C3C2=O)cc1 (configuration not stated)	14.3
CCOP(C)(=O)C(c1ccccc1)N(C)S(C)(=O)=O (configuration not stated)	-6.7
O/N=C1/C2C3CC4C2/C(=N\O)C2C1C3C42 (configuration not stated)	1.7
COC(=O)C1=C(O)/C(=C\c2ccccc2C(F)(F)F)N=C1C	9.4
CC(/C=C(/C#N)C(=O)Nc1ccc(Cl)cc1)=C\c1ccccc1	0.9
Cc1ccc(C2/C(=C(\O)c3ccccc3)C(=O)C(=O)N2CCN(C)C)cc1 (configuration not stated)	-17.1
COc1cc(C(=O)NC(NC(=S)Nc2ccc(Cl)cc2)C(Cl)(Cl)Cl)cc(OC)c1OC (configuration not stated)	-19.8
CC(C)CCNC(=O)C(=O)NCC1CCCO1 (configuration not stated)	-0.6
COC(=N)/C(C#N)=C/c1c(O)n(-c2c(Cl)cccc2Cl)c2ccccc12	5.4
CC(C)C(C(=O)O)N1C(=O)/C(=C/c2ccc(O)cc2)SC1=S (configuration not stated)	-37
NC(=O)c1ccc(NC(=O)c2ccccc2[N+](=O)[O-])cc1	9.6
COc1ccc(-c2nnc(-c3ccccc3)o2)cc1OC	8
CN(C)/C(=N/OC(=O)c1ccc([N+](=O)[O-])cc1)c1nonc1N	11.6
Cc1ccccc1OCC(=O)Nc1ccc(O)c(-c2nc3ccccc3o2)c1	13.8
COc1cccc(OCCCOc2cccc3ccccc23)c1	2.3
